Reference: ChEMBL document CHEMBL1201862, “PubChem BioAssay data set” (2004)

The compounds below were run on NCI-H322M (assay: inhibition of tumour cell growth, NCI panel, 48 h).

Question: `CC(C)N(Cc1ccccc1)S(=O)(=O)c1nc(C(C)(C)C)n[nH]1` was tested. Which GI50 did it give?
Answer: inactive: > 100 µM

Question: Which GI50 does the source give for `CC1(C)CCC(C)(C)c2c1ccc(O)c2Cc1c(O)ccc2c1C(C)(C)CCC2(C)C` here?
Answer: inactive: 2.37 µM

Question: With `OC(c1cc(C(F)(F)F)nc2c(Cl)cc(Cl)cc12)C1CCCCN1` (stereo not drawn) as the compound, how does the GI50 read?
Answer: inactive: > 37.2 µM

Question: With `CCCCCc1cc2c(cc1O)CC[C@@H]1[C@@H]2CC[C@]2(C)[C@@H](O)CC[C@@H]12` as the compound, how does the GI50 read?
Answer: inactive: 13.4 µM

Question: With `O=C1C=CC(=O)C(CNc2ccc(C(=O)OCc3ccccc3)cc2)=C1` as the compound, how does the GI50 read?
Answer: inactive: 25.2 µM

Question: How did the GI50 turn out when `CCOC(=O)c1c(CN2CCNCC2)nc2ccc(Cl)cc2c1-c1ccccc1` was run?
Answer: inactive: 16.3 µM

Question: How did the GI50 turn out when `O=c1c2ccccc2nc(-c2ccc(Br)cc2)n1NC1OC(CO)C(O)C(O)C1O` (stereo not drawn) was run?
Answer: inactive: > 100 µM

Question: `CCCC(C(=O)Nc1cccc2nc[nH]c12)C(=O)OCC` (stereo not drawn) was tested. Which GI50 did it give?
Answer: inactive: > 100 µM

Question: For `CC(C)=CC[S+]([O-])c1ccccc1NC1=CC(=O)CC(C)(C)C1` (stereo not drawn), which GI50 is on record?
Answer: inactive: > 100 µM

Question: `COc1cc2c(oc(=O)c3c4occc4cc(OC)c23)c2cccc(OCc3ccccc3)c12` was tested. Which GI50 did it give?
Answer: inactive: > 100 µM

Question: With `CN(C)CCC(/C=C/c1ccccc1)=N\Nc1ccc(Cl)c(Cl)c1` as the compound, how does the GI50 read?
Answer: inactive: 3.1 µM

Question: How did the GI50 turn out when `COc1ccc(CNc2nc(NCc3ccc(OC)c(OC)c3)nc(NC3CCCCC3)n2)cc1` was run?
Answer: inactive: > 100 µM

Question: Which GI50 does the source give for `Cc1cc(N(CCC#N)CCC#N)ccc1/C=C1\SC(=S)NC1=O` here?
Answer: inactive: > 100 µM

Question: With `CCOC(=O)C1=C(O)C(=O)c2ccccc2C1=O` as the compound, how does the GI50 read?
Answer: inactive: 61.5 µM

Question: Which GI50 does the source give for `C=CCCCCn1c2ccccc2c2c(C)c3cnccc3c(C)c21` here?
Answer: inactive: 14.6 µM

Question: `O=P(O)(O)CN1CCN(CP(=O)(O)O)CCN(CP(=O)(O)O)CCN(CP(=O)(O)O)CC1` was tested. Which GI50 did it give?
Answer: inactive: > 100 µM

Question: With `COC(=O)c1ccccc1/N=C(/NC1CCCCCC1)NS(=O)(=O)c1ccc(C)cc1` as the compound, how does the GI50 read?
Answer: inactive: > 100 µM

Question: With `O=C1OC(C2Cc3ccc4c(c3C2=O)CCC4)c2ccccc21` (stereo not drawn) as the compound, how does the GI50 read?
Answer: inactive: 69.7 µM

Question: Which GI50 does the source give for `COc1ccc(/C(=N\NC(=O)NN)C(c2ccc(OC)cc2)C2(O)C(=O)Nc3c(Cl)cc(Cl)cc32)cc1` (stereo not drawn) here?
Answer: inactive: > 100 µM

Question: With `CN(C)CN1C(=O)/C(=N\n2c(S)nnc2-c2ccncc2)c2ccccc21` as the compound, how does the GI50 read?
Answer: inactive: 80.9 µM

Question: How did the GI50 turn out when `CCC1=C(C[C@H]2NCCc3cc(OC)c(OC)cc32)C[C@H]2c3cc(OC)c(OC)cc3CCN2C1` was run?
Answer: active: 0.0319 µM

Question: With `C=C(C)C(=O)CC[C@@H](C)[C@H]1[C@@H](OC2OC(CO)C(O)C(O)C2O)C[C@@]2(C)[C@@H]3C[C@H](O)C4C(C)(C)[C@@H](OC5OC(CO)C(O)C(O)C5O)CC[C@@]45C[C@@]35CC[C@]12C` (stereo partly drawn) as the compound, how does the GI50 read?
Answer: inactive: > 100 µM

Question: Which GI50 does the source give for `COC(=O)C1=C(C(=O)OC)C2OC1C1C2C2(C)C(C)=C(C)C1(C)[S+]2[O-]` (stereo not drawn) here?
Answer: inactive: 21.5 µM

Question: For `O=C(Nc1cccc(C(F)(F)F)c1)C(=O)C(C(=O)c1ccc(Cl)c(Cl)c1)C1OC(=O)c2ccccc21` (stereo not drawn), which GI50 is on record?
Answer: inactive: 33.3 µM

Question: Which GI50 does the source give for `CC(=O)/N=C1\N/C(=C\c2ccc(Cl)cc2)C(=O)N1/C=C1\C(=O)Oc2ccccc2C1=O` here?
Answer: inactive: > 100 µM

Question: Which GI50 does the source give for `OC(Cn1cncn1)(Cn1cncn1)c1ccc(Cl)cc1Cl` here?
Answer: inactive: > 100 µM

Question: Which GI50 does the source give for `O=C1C=CC(=O)N1n1c(Cc2ccccc2)n[nH]c1=O` here?
Answer: inactive: > 100 µM

Question: Which GI50 does the source give for `O=C(/C=C/c1ccc(-c2ccccc2)cc1)NCc1ccc(C(=O)NCCc2c[nH]c3ccccc23)cc1` here?
Answer: inactive: 45.3 µM

Question: Which GI50 does the source give for `Cc1ccc(C2(O)c3ccccc3C(=O)N(C)C2(O)c2ccc(C)cc2)cc1` (stereo not drawn) here?
Answer: inactive: > 100 µM

Question: `OCC(O)COc1ccc(F)cc1` (stereo not drawn) was tested. Which GI50 did it give?
Answer: inactive: > 100 µM

Question: Which GI50 does the source give for `Cc1ccc(C(=O)/C(C#N)=C/Nc2c(C)n(C)n(-c3ccccc3)c2=O)cc1` here?
Answer: inactive: > 100 µM

Question: With `COc1cccc(NC(=O)CC(=O)n2nc(-c3ccccc3)c(/N=N/c3ccc(Cl)cc3)c2-c2ccccc2)c1` as the compound, how does the GI50 read?
Answer: inactive: 24.3 µM

Question: With `COc1ccc(C2=NN(C(=O)c3ccc(Cl)cc3)C(O)(c3cc(F)c(Cl)cc3Cl)C2)cc1` (stereo not drawn) as the compound, how does the GI50 read?
Answer: inactive: 47.4 µM

Question: `COc1cccc(C(=O)C#Cc2cnc(OC)nc2OC)c1` was tested. Which GI50 did it give?
Answer: inactive: 17.7 µM

Question: With `COc1ccc(/C=C/c2cnccn2)cc1OC` as the compound, how does the GI50 read?
Answer: inactive: > 10 µM

Question: For `O=C1/C(=C/c2cccc([N+](=O)[O-])c2)COc2ccc(Br)cc21`, which GI50 is on record?
Answer: inactive: > 100 µM

Question: How did the GI50 turn out when `COCCCNc1c2ccccc2nc2ccccc12` was run?
Answer: inactive: 5.19 µM

Question: Which GI50 does the source give for `O/N=C1/C(=C/c2ccc(F)cc2)CCCC1C(NO)c1ccc(F)cc1` (stereo not drawn) here?
Answer: inactive: 18.3 µM

Question: `COc1ccc(NS(=O)(=O)c2ccc3ncn(NS(=O)(=O)c4ccc(I)cc4)c(=O)c3c2)cc1` was tested. Which GI50 did it give?
Answer: inactive: > 100 µM

Question: `COc1ccc(N2C(=O)C3c4[nH]c5ccccc5c4C4CCCCC4C3C2=O)cc1` (stereo not drawn) was tested. Which GI50 did it give?
Answer: inactive: 16.5 µM

Question: How did the GI50 turn out when `O=C(Nc1ccccc1Br)c1cccc([N+](=O)[O-])c1O` was run?
Answer: inactive: 3.94 µM

Question: `COc1ccc2c(C)cc(N/N=C(\C)C=O)nc2c1` was tested. Which GI50 did it give?
Answer: inactive: 12.3 µM

Question: Which GI50 does the source give for `CCn1c(-c2ccccc2)cs/c1=N\C(P(=O)(O)O)P(=O)(O)O` here?
Answer: inactive: > 100 µM

Question: With `N=C(N)NS(=O)(=O)c1ccc(Nc2c3ccccc3nc3c(C(=O)N4CCN(CCO)CC4)ccc(Cl)c23)cc1` as the compound, how does the GI50 read?
Answer: inactive: > 100 µM

Question: With `CN(C(=O)C12C3C4C1C1C2C3C41C(=O)C(C)(C)C)C(C)(C)C` (stereo not drawn) as the compound, how does the GI50 read?
Answer: inactive: > 100 µM

Question: `Cc1cc(-c2ccccc2)nc(Nc2cc3ccccc3[nH]2)n1` was tested. Which GI50 did it give?
Answer: inactive: > 100 µM

Question: `O=C1C2C3C=C4c5ccccc5N(c5ccccc5)C4(C2C(=O)N1Cc1ccccc1)C1C(=O)N(Cc2ccccc2)C(=O)C31` (stereo not drawn) was tested. Which GI50 did it give?
Answer: inactive: > 100 µM

Question: Which GI50 does the source give for `S=c1nc(Nc2ccc(Br)cc2)c2c3c(sc2[nH]1)CN(N1CCc2c(sc4[nH]c(=S)nc(Nc5ccc(Br)cc5)c24)C1)CC3` here?
Answer: inactive: 26.8 µM

Question: Which GI50 does the source give for `C=CCc1cccc(/C=N\N/C(N)=N/O)c1O` here?
Answer: inactive: 3.72 µM

Question: For `Clc1ccc(Cl)c(Nc2ccnc(SCc3ccccc3)n2)c1`, which GI50 is on record?
Answer: inactive: > 100 µM

Question: Which GI50 does the source give for `NC(=O)c1coc(C2OC(CO)C(O)C2O)n1` (stereo not drawn) here?
Answer: inactive: > 100 µM

Question: With `O=C1C(c2ccc(C3=[N+]([O-])c4cc([N+](=O)[O-])ccc4C3=O)cc2)=[N+]([O-])c2cc([N+](=O)[O-])ccc21` as the compound, how does the GI50 read?
Answer: inactive: > 10 µM

Question: How did the GI50 turn out when `COC(=O)c1cc(-c2cccn2C)c2c(c1C(=O)OC)c1ccccc1n2C` was run?
Answer: inactive: > 100 µM

Question: With `CCC1(C)NN=c2s/c(=C/c3ccc(OC)cc3)c(=O)n2N1` (stereo not drawn) as the compound, how does the GI50 read?
Answer: inactive: > 100 µM

Question: For `C[Si](C)(C)CC(N)=O`, which GI50 is on record?
Answer: inactive: > 100 µM

Question: How did the GI50 turn out when `COc1ccc2c3c1OC1C(F)C=CC4(O)C(C2)NCCC314` (stereo not drawn) was run?
Answer: inactive: 5.05 µM

Question: How did the GI50 turn out when `O=C(Cc1cc[n+]([O-])cc1)C(=O)Nc1cc(Cl)c(Cl)cc1Cl` was run?
Answer: inactive: > 100 µM

Question: With `COC(=O)c1c(-c2ccccc2)cc2c3cc(-c4ccccc4)c(C(=O)OC)n3c3ccccc3n12` as the compound, how does the GI50 read?
Answer: inactive: > 100 µM

Question: With `O=C(O)C(C(=O)O)P(=S)(S)c1ccccc1` (stereo not drawn) as the compound, how does the GI50 read?
Answer: inactive: > 100 µM

Question: `CCC1=C(C(C)=O)[C@@H]2CCCCC(C(=O)OC)[C@@H]2C1=O` (stereo partly drawn) was tested. Which GI50 did it give?
Answer: inactive: > 100 µM

Question: For `COc1ccc(C(=O)c2c3cc(OC)c(OC)c(OC)c3cc[n+]2C)cc1`, which GI50 is on record?
Answer: inactive: 67.3 µM

Question: `O=c1c(C(c2ccccn2)c2c(O)oc3cc(O)ccc3c2=O)c(O)oc2cc(O)ccc12` was tested. Which GI50 did it give?
Answer: inactive: > 100 µM

Question: How did the GI50 turn out when `COc1ccc(-n2sc3ncccc3c2=O)cc1` was run?
Answer: inactive: > 100 µM

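Briefly, cells in 96-well plates were exposed to five compound concentrations for 48 h, and endpoints were estimated by linear interpolation. GI50 = concentration required for 50% inhibition of growth.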 Activity calls are given as the source filed them. Rule as the data show it: active = GI50 up to about 1.1 µM and inactive = higher.
